# In the BET-seq Pho4 binding data (Le et al. 2018):
# This is one part of the list. These are noisy estimates, calculated here from bound and input reads.
# Target: T1, Pho4 (S. cerevisiae) (UniProt P07270)
# T1 sequence: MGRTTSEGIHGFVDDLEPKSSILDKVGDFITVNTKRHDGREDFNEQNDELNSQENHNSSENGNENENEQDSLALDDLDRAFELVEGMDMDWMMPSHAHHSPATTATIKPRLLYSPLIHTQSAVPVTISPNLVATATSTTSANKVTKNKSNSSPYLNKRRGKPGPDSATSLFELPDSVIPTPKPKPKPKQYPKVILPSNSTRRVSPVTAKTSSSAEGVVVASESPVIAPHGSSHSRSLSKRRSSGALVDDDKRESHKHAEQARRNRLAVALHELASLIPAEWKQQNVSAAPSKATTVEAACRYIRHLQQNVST
# Test: relative binding free energy (BET-seq); higher = weaker binding
# Conditions: reference: library average
row,Sequence,relative binding free energy
1,TGGTGCACGTGGGATT,0.293 kJ/mol
2,TGGGGCACGTGACATG,0.209 kJ/mol
3,AGAAACACGTGTGGAG,0.0418 kJ/mol
4,GTTGCCACGTGGTTTA,-0.418 kJ/mol
5,AACTGCACGTGTGGGG,-0.46 kJ/mol
6,TGTTGCACGTGTATCA,0 kJ/mol
7,ATTGTCACGTGCCGGT,0.0837 kJ/mol
8,GGATGCACGTGGCGCG,-0.335 kJ/mol
9,TGCTGCACGTGTTGCG,0.0837 kJ/mol
10,ACGTTCACGTGAGGTG,1.63 kJ/mol
11,AATGGCACGTGGTTCG,-0.418 kJ/mol
12,TTATTCACGTGTAATA,0.753 kJ/mol
13,AGAAGCACGTGTTATG,-0.586 kJ/mol
14,TTCGTCACGTGGGAGT,-0.0418 kJ/mol
15,CTTGGCACGTGATTGA,-0.126 kJ/mol
16,AGAAACACGTGATGGG,0.753 kJ/mol
17,GAGATCACGTGTGGTC,1.21 kJ/mol
18,AGGTTCACGTGACGGT,0.837 kJ/mol
19,TTTTTCACGTGCGACT,1.13 kJ/mol
20,AATTTCACGTGTGTAA,1.3 kJ/mol
21,AATAACACGTGTTTTT,0.377 kJ/mol
22,ATGTTCACGTGCTTGC,1.67 kJ/mol
23,TTTTGCACGTGACGTT,0.377 kJ/mol

row,Sequence,relative binding free energy
1,TGCTGCACGTGTGGGT,0.126 kJ/mol
2,TTACTCACGTGGTAAG,1 kJ/mol
3,AATCACACGTGGTGTT,0 kJ/mol
4,TGTGCCACGTGAATGT,0.544 kJ/mol
5,GAGAGCACGTGGCGTG,-0.377 kJ/mol
6,GGAGGCACGTGTCGAG,-0.46 kJ/mol
7,GGCTGCACGTGCGCGG,-0.167 kJ/mol
8,GGGGCCACGTGCAGTG,-0.418 kJ/mol
9,ATATGCACGTGCTCGG,-0.377 kJ/mol
10,GGTGACACGTGGTGAT,-0.293 kJ/mol
11,TGTTTCACGTGCCTAG,1.26 kJ/mol
12,GTCAACACGTGTAGGT,0.502 kJ/mol
13,CGGTGCACGTGTATTG,-0.0837 kJ/mol
14,TTTGGCACGTGATTGA,0.0837 kJ/mol
15,AGGGGCACGTGCGAAG,-0.586 kJ/mol
16,TGTGACACGTGTCGGA,0.544 kJ/mol
17,CTGTTCACGTGAGGGA,0.962 kJ/mol
18,ATAGTCACGTGAGGGA,0.879 kJ/mol
19,TGGGGCACGTGCCGTT,-0.962 kJ/mol
20,AGGTTCACGTGATACT,1.05 kJ/mol
21,TCTGTCACGTGAGGTC,1.05 kJ/mol
22,CGTTACACGTGGTGGA,-0.0837 kJ/mol
23,GATTGCACGTGTTGTG,0.502 kJ/mol

row,Sequence,relative binding free energy
1,AGTGCCACGTGTTTGT,-0.544 kJ/mol
2,AAGGGCACGTGCATGT,-0.837 kJ/mol
3,CGGTGCACGTGGAATT,0.628 kJ/mol
4,AGAGGCACGTGACATG,0.0837 kJ/mol
5,CGGAGCACGTGATAGG,0.418 kJ/mol
6,AAAGGCACGTGTGGGA,0.0837 kJ/mol
7,AACGGCACGTGTGTTG,-0.167 kJ/mol
8,TAGGACACGTGATTGA,0.293 kJ/mol
9,GGTCTCACGTGAAGTA,2.51 kJ/mol
10,GGTTCCACGTGTTATT,1.05 kJ/mol
11,GGATACACGTGTTTTG,0.418 kJ/mol
12,CTTCGCACGTGTGTTG,-0.586 kJ/mol
13,GTCGTCACGTGGGGTG,0.0418 kJ/mol
14,AGCTTCACGTGTGGTC,0.795 kJ/mol
15,TATAGCACGTGGAGGG,-0.209 kJ/mol
16,CTTCGCACGTGGTGGT,-0.502 kJ/mol
17,ACGTGCACGTGGGGTG,-1.05 kJ/mol
18,GTGATCACGTGGAAGG,0.753 kJ/mol
19,TTATTCACGTGCGATT,1.3 kJ/mol
20,GCGTTCACGTGTGATG,2.26 kJ/mol
21,CTGTGCACGTGAGTAT,0.586 kJ/mol
22,TGTATCACGTGTGCCT,0.335 kJ/mol
23,TTTCGCACGTGTCTGT,0.0837 kJ/mol

row,Sequence,relative binding free energy
1,ACGTACACGTGTGGGC,0.669 kJ/mol
2,AGGGTCACGTGACTGG,1.51 kJ/mol
3,TCAGACACGTGAGTGG,0.879 kJ/mol
4,ATTATCACGTGGGTTA,0.335 kJ/mol
5,AATATCACGTGTGGTG,0.669 kJ/mol
6,ATTATCACGTGGATCT,1.26 kJ/mol
7,TTGGGCACGTGTTTGG,-0.0418 kJ/mol
8,TTTGGCACGTGCTATA,-1.17 kJ/mol
9,TTTTTCACGTGGAAAG,1.51 kJ/mol
10,GTAGTCACGTGTTGCA,0.879 kJ/mol
11,TGGAACACGTGGATTA,0.418 kJ/mol
12,GAGGGCACGTGCAATG,0.0837 kJ/mol
13,AAGTGCACGTGTTTAG,0.0418 kJ/mol
14,AATAGCACGTGTAAGT,0.0418 kJ/mol
15,GTCGGCACGTGCAAGG,0.544 kJ/mol
16,GTGAGCACGTGCCGGT,-0.293 kJ/mol
17,AGGTTCACGTGCCGGG,1.09 kJ/mol
18,GGTATCACGTGTTTAG,1.13 kJ/mol
19,TTTTTCACGTGTTGAC,1.46 kJ/mol
20,GTGAGCACGTGTCAGT,-0.126 kJ/mol
21,CTCGGCACGTGGGGGG,-1.17 kJ/mol
22,GTATACACGTGAGCTT,1.46 kJ/mol
23,TATGTCACGTGGATAG,0.251 kJ/mol

row,Sequence,relative binding free energy
1,TTGAACACGTGTGCGT,0.0418 kJ/mol
2,TGCGCCACGTGGGAGG,-1.05 kJ/mol
3,GTTAGCACGTGGATGT,-0.251 kJ/mol
4,GTGTGCACGTGATGCA,0.126 kJ/mol
5,TAGTACACGTGCGGGG,0.167 kJ/mol
6,GGGCACACGTGTTGCG,0.544 kJ/mol
7,AATATCACGTGGGGTG,0 kJ/mol
8,GGCGTCACGTGTAGTT,0.209 kJ/mol
9,ATATTCACGTGAGTTT,1.34 kJ/mol
10,AACGTCACGTGAGTTT,1.17 kJ/mol
11,TATTCCACGTGGGTGT,-0.418 kJ/mol
12,TTCGGCACGTGTAGCG,0.209 kJ/mol
13,GATGTCACGTGAATGT,1.46 kJ/mol
14,TTGTTCACGTGATTCC,1.46 kJ/mol
15,GGGAACACGTGTTGCT,0.377 kJ/mol
16,GGACCCACGTGGGGTG,-1.3 kJ/mol
17,CTCTTCACGTGTGTGT,0.418 kJ/mol
18,TTGAGCACGTGCTGAT,-0.544 kJ/mol
19,TGTGTCACGTGTGTTT,0.795 kJ/mol
20,GGGGTCACGTGGAAAT,0.879 kJ/mol
21,TTATTCACGTGTTAAA,1.51 kJ/mol
22,AAGCGCACGTGAGTGG,0.586 kJ/mol
23,ATGGACACGTGTTAGA,0.418 kJ/mol
